Read counts are not given, so values of variants with three or more changes are uncertain.
B1: LINE1-mini (parent)
chain: GGCAGAGCUCAACACAGCGUGGCAAAGUGGCUGUGGCUAGACUGCC

Variants of: B1
Assay: self-cleavage, relative activity (ratio to wild type); higher = more cleavage; in vitro, sequencing; the parent is a self-cleaving ribozyme

| Variant | self-cleavage |
| --- | --- |
| C10A A26U C46A | 0.05 |
| U9C G19U A24C | 0.21 |
| G5U G27U A39U | 0.05 |
| A4C C10A G35C U38A | 0 |
| A4U A24U C42U | 0.09 |
| G1C A6G U28A G40C | 0.02 |
| G7U A12C C18G G44C | 0.02 |
| A14C C15G A25U | 0.04 |
| C3U C23G C42U | 0.19 |
| G2C C3G G22C U28A G30C U38A U43A C46A | 0.01 |
| C3G C10U G21C G30U | 0.05 |
| C31U U32A U34A | 0.06 |
| A4U C10A G19U G21A G36U | 0.02 |
| A4G C8G G22C | 0.03 |
| G22U A25U G30C C42G C46A | 0.06 |
| C3A U28A A41G | 0.04 |
| U9G C10A C15G U34G A39G | 0.01 |
| G5A U9C G35A | 0.03 |
| A16U G40A G44U | 0.31 |
| U28G C31U U38G A41G | 0.01 |
| C3G G17A C23G U34G | 0.02 |
| C18U C31A A41G | 0.01 |
| U9A G30A U34C | 0.18 |
| C3U C10U C45U | 0.04 |

| Variant | self-cleavage |
| --- | --- |
| A11C G19A A25U | 0.03 |
| U9C A26U C45U C46G | 0.01 |
| A4G G22U C23U C31A A39G G40U | 0.22 |
| A6U A12G A16G G29C C42G | 0 |
| A6G A14U C45G | 0.11 |
| A4U G5U C15A | 0.07 |
| A4U G7U G19A A26G G35C | 0.02 |
| G1U C8A A16C A26U A41G | 0.06 |
| G2U C3U C10A G27A | 0.05 |
| G21A U28A U32G | 0.02 |
| C10G G29U G33A | 0.01 |
| C8G A25G G30C | 0.04 |
| C3G G19A C23U U28A U38G | 0.01 |
| U9A A12U A16C G21A A25C | 0.02 |
| A6C C15U U20A G22A C23A C42U | 0.08 |
| A6G C10U A11G G17A | 0.01 |
| G7C C18A G21U C37U C46U | 0.02 |
| A6G G19A A26G C45G | 0.05 |
| A4U G19U U32G U34G A41C U43A | 0.02 |
| G19C G22U G33U G44A | 0.22 |
| C8U G22U U38C | 0.21 |
| A14G G17C G19A C46U | 0.24 |
| C10A A26G G27U G40U | 0.03 |
| A11U G27U G40A | 0.04 |

| Variant | self-cleavage |
| --- | --- |
| G21U G22C A39C G44C | 0.08 |
| C23U G27A U32A | 0.07 |
| C8U A14G G19C G22C U28G G35U | 0.05 |
| G2U A16C G27A U28G G33C C42U G44A | 0 |
| A11G U32G G36U | 0.03 |
| C3A G35C G40A | 0.21 |
| G2C C10G C15A U38C | 0.01 |
| G35U G36A U38A | 0.07 |
| A4G A25U U34G | 0.05 |
| G5U A26G G40U G44C | 0.02 |
| G40C C42A U43C | 0.01 |
| G1U G7C C18U G27U | 0.46 |
| A14C G30U U32G C37G A39C | 0.01 |
| A16U G17U U20C | 0 |
| A6U U9G C10U G44C | 0.1 |
| C8G G22A G27U C46U | 0 |
| A6C U34C U43A | 0.06 |
| G27C C31A G40A C45A C46G | 0.07 |
| C8U C10A C46U | 0.07 |
| G2U A39G G40C | 0.02 |
| A16G C23U G33U C42U | 0.02 |
| G5U C18U A26U G29C G33A | 0.03 |
| G7A G21C G27U A39U | 0.27 |
| C3A G21A C42G | 0.03 |

| Variant | self-cleavage |
| --- | --- |
| G5A C18G C37G A41G | 0.03 |
| A25U C42A G44A | 0.52 |
| C8U A11G U34C | 0.06 |
| C3U A14C C15G G40C C42U | 0.02 |
| C3A A4C C13A G17A A26G | 0.37 |
| G21U G22A G35C | 0.14 |
| G7U G21A A24C A41U C45G | 0 |
| G19U A25G G36A | 0.14 |
| G7U C10G G17A | 0.02 |
| G2C G29C C45U | 0.15 |
| C13U U20A G44U | 0.04 |
| U20G A25G G40C | 0.04 |
| G27A C45G C46G | 0.42 |
| C8U G40C C46G | 0.16 |
| A14U U20A G30U | 0.06 |
| G5U A41G U43C | 0.03 |
| G19A G22U C23U U38A C46A | 0.1 |
| G2C U9A A11U | 0.03 |
| C3U U9C G21U C46U | 0.01 |
| G5A C13A G22A | 0.3 |
| A6C C10A A25G G27C C31A | 0.02 |
| G2U U28A U34G | 0.02 |
| G17A C18A G21A G30C | 0.11 |
| G5U A14U G29U | 0.15 |

| Variant | self-cleavage |
| --- | --- |
| G1U U9A A11U G21A A26U | 0.03 |
| G7U A16C C23A | 0 |
| G2U U9A A24U C46G | 0.03 |
| G2C C13A A14C G33U | 0.07 |
| G2U A6G G40U C45G | 0.02 |
| G2A G7A C45U | 0.91 |
| G7A C18A G27A C37U | 0.14 |
| C18U A25G C31U U34G | 0.02 |
| G21A G30C U43G | 0 |
| A12C G30U G44C | 0.07 |
| A16C G35U C42U | 1.29 |
| C18G G27U C31A | 1.07 |
| A4U C13G A26G C31G C45A | 0.02 |
| C15U G29C G33U | 1.39 |
| U9G G21U G40A | 0.03 |
| A12G A25G G40A | 0.01 |
| C23G G29C U34C G36U G40C U43A G44U | 0.01 |
| C8A C13A G17A | 0.14 |
| G29C G33U G35U C45U | 0.05 |
| C3U A4G G5A G35U G40C | 0.04 |
| G17C C23A G44A | 0.09 |
| C3U A6U G7A C37U G40U C45A | 0.07 |
| G19C U20C A26C G27U U28G | 0.09 |
| C13A G19C G22C A25G | 0.02 |

| Variant | self-cleavage |
| --- | --- |
| G22A A39G G40U G44C | 0.07 |
| G19U G27U C31A G44C C46A | 0 |
| C13U A26C C42A U43C | 0.05 |
| G2A U9C A11G G30A G35A | 0.03 |
| G1A C10A U28G C37U | 0.02 |
| G5U C15G G27C C37G | 0.01 |
| A6C C42G C46A | 0.03 |
| G2C U34G G44A | 0.05 |
| C3U C13U A16U G17C G29A | 0.14 |
| C8U A12C G22A | 0.03 |
| U9G A24G A25G | 0.03 |
| G1C C3G A4C G33U | 0.06 |
| G1C A14G C23A G40A | 0.03 |
| G7A C8U G27A U28C C45A | 0.73 |
| A4C A6G U9G C31A G33C U38A A39G | 0.47 |
| C3A A4G A26G C37G | 0.03 |
| A16U C23U C37G C46G | 0.13 |
| C15U C18A G30U C31G G44U | 0.02 |
| C18A A39G C45U | 0.04 |
| C10U A26G G27U U43A C45U | 0.08 |
| A6U C8A U20C C42U | 0.04 |
| C23U A24U G27C C46U | 0.8 |
| C15G A16C G36U U43C | 0.01 |
| G1U U9A U43C | 0.03 |

| Variant | self-cleavage |
| --- | --- |
| U20A G30U C31A U38G | 0.03 |
| G2A C3A C10G G22A | 0.1 |
| A4G G7U G17U G21U U34A | 0.02 |
| G5C C10U C37A | 0.05 |
| A24G A25G G30C C45U C46U | 0.27 |
| A4C A6C C10A G19U A39G | 0.01 |
| G7C A11U C31A U32C G35A C42G U43A | 0 |
| A11G G17C A24U U28G G35C G36A | 0 |
| G1U G7U C13A | 0.02 |
| A11U G22A C23A C31G | 0.02 |
| U20G U32G G40A | 0.03 |
| C8U G17C C31A G33C | 0.06 |
| C15G A16U G30U | 0.05 |
| C8G G35U G44U C46G | 0.01 |
| G30C G35A C42A | 0.14 |
| G17U A25U G27U A41U | 0.08 |
| G2A U9A U43C | 0.09 |
| G7C A39G C45A | 0.03 |
| U38A C42G G44U | 0 |
| A6U C31A C42G | 0.02 |
| C3A C18A G27A C45G | 0.07 |
| C13U C15U A24C C37G G44A | 0.05 |
| A24U A25G A41G G44U | 0.07 |

— the RNAGym collection of RNA variant scans (doi:10.7554/elife.90254)
